The list shows a part of the results. At the low end of the ranking the order means little.

The target in this test is SIX1 homeodomain (reference allele) (UniProt Q15475). Nature of the test: universal protein binding microarray. To be noted: Universal all-10-mer PBM (8x60K, AMADID 030236), 300 nM GST-tagged protein, Alexa Fluor 488 anti-GST; buffer, salt, pH and temperature not stated; high values mean tight binding; most listed sequences are background and not binding sites; double strand, one strand shown.
For GCAACACC, the binding signal was found to be 0.25 E-score.

Consider TGCTTACA, for which the binding signal is -0.0502 E-score.

GGATTCCA: the binding signal worked out at 0.201 E-score.

For the sequence ATAAGTTA, the binding signal was -0.0906 E-score.

Turning to AAAACTAT, the binding signal came out at 0.0642 E-score.

In the case of AGTGTTTC, the binding signal was -0.189 E-score.

In the case of AAAGGCAC, the binding signal is -0.257 E-score.

With CTGTGGGC, the binding signal is -0.254 E-score.

CAGGCGTA: the binding signal was -0.000125 E-score.

Turning to CTGCATAC, the binding signal amounted to 0.0871 E-score.

As to ACGGCAGC, the binding signal is -0.0537 E-score.

Regarding AAGCGACA, the binding signal was -0.0712 E-score.

As for AGGGCACC, the binding signal was -0.172 E-score.

As for ATACTTCA, the binding signal was 0.166 E-score.

With CCTAACCC, the binding signal was -0.0302 E-score.

For the sequence AGGTCCTC, the binding signal was -0.182 E-score.

On to GAGGTGGA, for which the binding signal stood at 0.0141 E-score.

In the case of GACGGAAC, the binding signal is -0.139 E-score.

With CCGACGTA, the binding signal is -0.059 E-score.

Regarding ATCTTCTC, the binding signal was 0.132 E-score.

As for AGCTCTTG, the binding signal was -0.0312 E-score.

For GTGGTCTA, the binding signal was -0.00752 E-score.

Regarding GCATGTAA, the binding signal is -0.202 E-score.

Turning to GATGGCAA, the binding signal is -0.109 E-score.

On to CGCCGGGC, for which the binding signal is -0.0821 E-score.

Consider CATACCTA, for which the binding signal was 0.174 E-score.

Take ACGACGAG: the binding signal is -0.209 E-score.

On to AAACCATG, for which the binding signal was 0.0829 E-score.

AAGTGAAA: the binding signal is -0.156 E-score.

Regarding CCTGTCGC, the binding signal is -0.00328 E-score.

In the case of GAACTCCA, the binding signal was -0.308 E-score.

For the sequence CACACGTA, the binding signal is 0.108 E-score.

Take GGAAGTCC: the binding signal was -0.23 E-score.

For CGCGTAGA, the binding signal was found to be 0.079 E-score.

AGTCACTG: the binding signal is -0.282 E-score.

Consider ATGAGCCG, for which the binding signal was 0.206 E-score.

CACGAAGA: the binding signal worked out at 0.0108 E-score.

For TGTAACAA, the binding signal was -0.0896 E-score.

With ATCATCAT, the binding signal is 0.291 E-score.

For ATTGACCA, the binding signal was -0.0208 E-score.

In the case of ACGACTTA, the binding signal is -0.122 E-score.

Take ACCTCTTG: the binding signal was 0.101 E-score.

Turning to GCCTCGAA, the binding signal is -0.219 E-score.

For the sequence TACAGTCA, the binding signal is 0.0219 E-score.

Turning to AGACTCCC, the binding signal is -0.147 E-score.

As for ATTACCCG, the binding signal worked out at 0.135 E-score.

For the sequence TACAGCGA, the binding signal amounted to 0.0268 E-score.

For the sequence CAGTCTTC, the binding signal is -0.258 E-score.

As for ATGGCGTC, the binding signal was -0.0404 E-score.

Regarding GCAGTCAC, the binding signal was -0.143 E-score.

In the case of CTACAAGC, the binding signal is -0.246 E-score.

As to CAGACGGA, the binding signal amounted to 0.0786 E-score.

As for CGGAAGCC, the binding signal stood at 0.0281 E-score.

CTGTCCCA: the binding signal is -0.037 E-score.

With ATGTTACG, the binding signal was -0.3 E-score.

For AGTTTTGC, the binding signal was -0.0945 E-score.

With ACGTTGAG, the binding signal was -0.0815 E-score.

In the case of TATCCTCA, the binding signal was found to be 0.37 E-score.

As for ACACAAGT, the binding signal is -0.00325 E-score.

In the case of AAGCGAAA, the binding signal is -0.289 E-score.

Consider AAACCCAT, for which the binding signal was 0.169 E-score.

Turning to CGTCCAAC, the binding signal is -0.0628 E-score.

For ACCATGAT, the binding signal came to 0.269 E-score.

With GAAATTAA, the binding signal is -0.193 E-score.

As for TAACTCGA, the binding signal was -0.00801 E-score.

For the sequence ATGCTACG, the binding signal was determined as 0.0501 E-score.

Regarding ATGTACAA, the binding signal is -0.101 E-score.

On to ACTGCCCG, for which the binding signal is -0.087 E-score.

As to AGTCGCAA, the binding signal is -0.148 E-score.

As to AAATAATG, the binding signal was -0.0999 E-score.

Turning to ATTAGTAC, the binding signal was found to be 0.0377 E-score.

For the sequence CTCCTACC, the binding signal was -0.112 E-score.

As for CCAAGACC, the binding signal was -0.11 E-score.

As for TGATGGAA, the binding signal is -0.141 E-score.

CGGCACGC: the binding signal is -0.176 E-score.

In the case of CGACCTCA, the binding signal was -0.088 E-score.

ACCTCCCT: the binding signal is -0.173 E-score.

For the sequence ACCTCCCA, the binding signal was 0.00382 E-score.

AGGGGCGC: the binding signal was -0.17 E-score.

As to CCAAGATC, the binding signal was 0.22 E-score.

On to TCACATAA, for which the binding signal was -0.0263 E-score.

As to GGATTGCA, the binding signal stood at 0.0902 E-score.

In the case of ATGCAGGA, the binding signal worked out at 0.143 E-score.

For the sequence GTATCGCA, the binding signal is 0.431 E-score.

Turning to GGAACGCC, the binding signal was -0.0992 E-score.

Take TCCTGGCA: the binding signal turned out to be 0.0841 E-score.

With CAGAGTTC, the binding signal was -0.176 E-score.

As to GGGCGTAA, the binding signal is -0.114 E-score.

For the sequence ATTTGGCC, the binding signal is -0.195 E-score.

On to CCTTCCCA, for which the binding signal was found to be 0.0765 E-score.

AGAGATCT: the binding signal was 0.198 E-score.

On to CAATACCA, for which the binding signal worked out at 0.375 E-score.

As for ACCGGGAA, the binding signal is 0.0734 E-score.

For the sequence ACCGCCGG, the binding signal is -0.143 E-score.

AACATAGG: the binding signal is -0.141 E-score.

In the case of TCACTACA, the binding signal is -0.0328 E-score.

As to ACTTAGAC, the binding signal stood at 0.00364 E-score.

In the case of ATGGAGTC, the binding signal was 0.0859 E-score.

For CTTACAAG, the binding signal was -0.0515 E-score.

In the case of GCAGGCAC, the binding signal is -0.303 E-score.

Turning to TCAGCCGA, the binding signal is -0.00232 E-score.

In the case of CTGCCTGA, the binding signal was -0.0906 E-score.

With TCATCGCA, the binding signal is 0.119 E-score.

On to AAATTGGA, for which the binding signal amounted to 0.0202 E-score.

Consider ATTGGTGC, for which the binding signal is -0.165 E-score.

CTGAATAA: the binding signal was -0.141 E-score.

As for TAACGGGA, the binding signal was -0.0308 E-score.

Consider CACCGTGA, for which the binding signal turned out to be 0.178 E-score.

On to CGAAGCAA, for which the binding signal is -0.115 E-score.

Consider GAAACGGA, for which the binding signal amounted to 0.0348 E-score.

As to CTGTTGTA, the binding signal was -0.139 E-score.

In the case of CCTATGGA, the binding signal came out at 0.00774 E-score.

CTGTAAGA: the binding signal is -0.0658 E-score.

For the sequence CAATGTAG, the binding signal was -0.206 E-score.

As for ACCGACGA, the binding signal was -0.0354 E-score.

Consider CTTCGGGA, for which the binding signal was -0.107 E-score.

Regarding CCAAGTAG, the binding signal was -0.071 E-score.

For the sequence CGGTGTAG, the binding signal was 0.297 E-score.

Take AGCGAATA: the binding signal was -0.00215 E-score.

In the case of GCGCGCGA, the binding signal was -0.0287 E-score.

For the sequence AGAGCGCT, the binding signal is -0.136 E-score.

As to CACTTAGA, the binding signal amounted to 0.123 E-score.

Take AGTCCAGA: the binding signal was -0.135 E-score.

For the sequence CACAACAG, the binding signal is -0.0838 E-score.

As to AGCGGCTC, the binding signal came to 0.0652 E-score.

As for CCCGATCG, the binding signal came to 0.323 E-score.

In the case of CAACGGCA, the binding signal is -0.178 E-score.

As to TAATGCCA, the binding signal turned out to be 0.00471 E-score.

ATAGCAGC: the binding signal is -0.102 E-score.

Regarding TAATAAAA, the binding signal is -0.185 E-score.

In the case of CGACCCGC, the binding signal came out at 0.135 E-score.

As to CCAAACGC, the binding signal was -0.252 E-score.

Turning to TCCAGAAA, the binding signal was -0.0609 E-score.

With CGCCATTC, the binding signal was -0.0996 E-score.

With AGGGCAAT, the binding signal was -0.212 E-score.

Turning to ACGCCAAA, the binding signal is -0.176 E-score.

As to AGATGAAG, the binding signal was -0.0574 E-score.

For GAAATTCC, the binding signal is -0.332 E-score.

Consider AGACGCCG, for which the binding signal was determined as 0.00043 E-score.

Consider GCCTGTCC, for which the binding signal is -0.222 E-score.

As to AAACTCGA, the binding signal is -0.0575 E-score.

Turning to ACTAGGAC, the binding signal was -0.198 E-score.

With TATCAGAA, the binding signal was 0.354 E-score.

On to ATCAATAA, for which the binding signal turned out to be 0.182 E-score.

Take GGTACGAC: the binding signal is -0.117 E-score.

For the sequence ACGGCCCG, the binding signal worked out at 0.0659 E-score.

Take ATGGATAG: the binding signal was found to be 0.247 E-score.

In the case of AACACTCG, the binding signal is -0.255 E-score.

GCATCTAC: the binding signal is 0.094 E-score.

On to AATCTTTA, for which the binding signal was -0.171 E-score.

ACGCTGGC: the binding signal was 0.102 E-score.

On to ACGCAATC, for which the binding signal is -0.0966 E-score.

As for CACTTGAA, the binding signal is -0.0417 E-score.

For CTCAATAC, the binding signal turned out to be 0.259 E-score.

Regarding ATGCAGCA, the binding signal was -0.0652 E-score.

With CACTCGTC, the binding signal is -0.158 E-score.

TAGTCTGA: the binding signal was determined as 0.0959 E-score.

Turning to CCGTGTAG, the binding signal is 0.025 E-score.

Turning to ACATCTAT, the binding signal was determined as 0.0949 E-score.

As to ATCTCGTC, the binding signal was found to be 0.134 E-score.

Turning to CGTACTGC, the binding signal is -0.234 E-score.

ACTGAAGT: the binding signal is -0.25 E-score.

As for CGGTTCAC, the binding signal was -0.0481 E-score.

Take TCACGACA: the binding signal was -0.109 E-score.

With CACTCTAC, the binding signal came to 0.0386 E-score.

Turning to CTCGTACC, the binding signal stood at 0.0239 E-score.

With CTGATCGC, the binding signal was found to be 0.191 E-score.

Take CAGGCGCC: the binding signal was -0.282 E-score.

In the case of AACAGCAA, the binding signal is -0.12 E-score.

For the sequence TCGATAGA, the binding signal came to 0.123 E-score.

In the case of CGGTGATA, the binding signal came out at 0.409 E-score.

Turning to ATGACCGG, the binding signal was -0.0478 E-score.
